“And” between values parts separate entries of the source, which are not always exact repeats. Equal values may be shown once. Hit rate of the full screen: of about 350,000 compounds, about 700 (0.2%) were called active. The inconclusive results got no clear call from the source; some entries with a clear call stand among them for comparison. Calls follow the shape of the dose curve; as a rule, active = well fitted inhibition curve with a large enough effect; inconclusive = small, poorly fitted or top-dose-only effect; inactive = flat fitted curve, though single readings scatter. Potencies beside an inconclusive call are fits to weak or partial responses and may not hold up.
Target: RecQ-like DNA helicase BLM (Homo sapiens) (UniProt P54132)
UniProt P54132, sequence (P54132 whole entry, looked up): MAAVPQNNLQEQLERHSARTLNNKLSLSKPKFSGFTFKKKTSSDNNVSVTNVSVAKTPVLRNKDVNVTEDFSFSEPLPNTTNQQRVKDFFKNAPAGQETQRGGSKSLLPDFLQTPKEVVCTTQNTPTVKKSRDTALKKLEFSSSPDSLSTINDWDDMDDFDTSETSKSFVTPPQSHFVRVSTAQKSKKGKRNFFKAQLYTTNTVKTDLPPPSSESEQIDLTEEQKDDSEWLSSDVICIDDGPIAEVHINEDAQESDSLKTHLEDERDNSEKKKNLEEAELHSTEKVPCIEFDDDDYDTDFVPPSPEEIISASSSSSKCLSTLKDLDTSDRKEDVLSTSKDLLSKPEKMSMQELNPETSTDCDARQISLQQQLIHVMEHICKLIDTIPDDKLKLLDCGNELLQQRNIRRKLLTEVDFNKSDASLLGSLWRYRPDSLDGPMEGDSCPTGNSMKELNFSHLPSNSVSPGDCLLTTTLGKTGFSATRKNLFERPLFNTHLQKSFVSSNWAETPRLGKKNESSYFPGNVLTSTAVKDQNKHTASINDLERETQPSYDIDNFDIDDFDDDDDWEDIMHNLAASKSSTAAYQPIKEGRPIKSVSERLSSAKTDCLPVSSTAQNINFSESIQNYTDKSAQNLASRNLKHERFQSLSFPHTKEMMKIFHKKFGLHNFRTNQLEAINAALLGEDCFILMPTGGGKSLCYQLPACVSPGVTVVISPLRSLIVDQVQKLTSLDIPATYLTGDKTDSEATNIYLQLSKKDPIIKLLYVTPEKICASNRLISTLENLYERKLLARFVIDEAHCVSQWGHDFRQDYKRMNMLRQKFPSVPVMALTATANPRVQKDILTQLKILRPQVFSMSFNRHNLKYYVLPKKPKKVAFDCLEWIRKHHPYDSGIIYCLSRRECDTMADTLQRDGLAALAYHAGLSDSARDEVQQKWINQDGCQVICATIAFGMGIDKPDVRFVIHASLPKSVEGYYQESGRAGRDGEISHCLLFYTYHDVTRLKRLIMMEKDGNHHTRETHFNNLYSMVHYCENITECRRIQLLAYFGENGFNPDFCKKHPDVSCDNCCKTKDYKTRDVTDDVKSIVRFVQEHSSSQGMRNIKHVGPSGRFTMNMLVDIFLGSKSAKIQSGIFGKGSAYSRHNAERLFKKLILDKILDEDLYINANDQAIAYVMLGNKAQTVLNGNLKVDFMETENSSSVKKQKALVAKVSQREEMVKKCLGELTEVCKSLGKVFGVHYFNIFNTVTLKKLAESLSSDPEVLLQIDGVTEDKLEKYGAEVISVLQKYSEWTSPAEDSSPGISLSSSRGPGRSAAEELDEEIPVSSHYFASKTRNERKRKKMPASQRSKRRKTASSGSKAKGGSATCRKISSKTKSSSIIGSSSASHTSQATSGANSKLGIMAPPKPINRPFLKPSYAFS
Assay: qHTS Assay for Inhibitors of Bloom's syndrome helicase (BLM); also: nearly all actives have a fitted effect of over 35% in size;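 as to activity change, negative = inhibition: plate controls were vehicle for no effect and no enzyme for full effect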
Details: recombinant BLM DNA unwinding, fluorescence dequenching; series mostly up to 56.1 µM; activity change, negative = inhibition: at the top concentration
Potency is read from the fitted curve at half-maximal effect; tags tell the direction and shape of the fitted curve.

| SMILES | Potency | activity change, negative = inhibition |
| --- | --- | --- |
| O=C(O)c1ccccc1Nc1ccc(CCc2ccc(Cl)c(Cl)c2)cc1 | inconclusive: 39.8 µM [inhibitor, single point] | – |
| CN=c1scc(C)n1/N=C/c1ccc(O)c(O)c1O | inconclusive: 14.1 µM [inhibitor, partial curve] | – |
| O=C(CN1C(=O)S/C(=C\C=C\c2ccccc2)C1=O)Nc1ccccc1C(=O)O | – | inactive: -8.49% |
| O=C(CSc1nc(-c2ccc(F)cc2)nc2c1Cc1ccccc1O2)Nc1cccc(C(=O)O)c1 | inconclusive: 3.98 µM [inhibitor, full curve, poor fit] and inconclusive: 3.16 µM [inhibitor, partial curve] | – |
| COc1ccc(O)c(N)c1 | inconclusive: 2.82 µM [inhibitor, full curve] | – |
| NC(=O)CC1Nc2cccc3cccc(c23)NC1=O (stereo not given) | active: 2.82 µM | – |
| Cc1nc2c(ccc3nc(NC(=O)Cc4ccccc4)sc32)s1 | inconclusive: 35.5 µM [inhibitor, single point] | – |
| NN1C(=O)/C(=C\c2ccco2)SC1=S | inconclusive: 39.8 µM [inhibitor, single point] | – |
| CCOC(=O)CN1C(=O)S/C(=C/C=C/c2ccc(N(C)C)cc2)C1=O | inconclusive: 35.5 µM [inhibitor, single point] | – |
| O=C1/C(=C/c2ccc(O)c(O)c2)SC(=S)N1Nc1ccccc1 | inconclusive: 28.2 µM [inhibitor, partial curve] | – |
| Cc1ccc[n+](/C(C(=S)NCc2ccco2)=C(/[O-])c2ccccc2Cl)c1 | inconclusive: 22.4 µM [inhibitor, partial curve] | – |
| O=C(C[n+]1ccc(C(=O)N/N=C/c2ccc(O)cc2)cc1)c1ccccc1 | inconclusive: 35.5 µM [inhibitor, single point] | – |
| Cc1cccc(OCC(=O)N/N=C/C=C/c2ccco2)c1 | inconclusive: 20 µM [inhibitor, single point] | – |
| O=C(/C=C/c1cccc(Cl)c1)OCc1cn2cc(Cl)ccc2n1 | inconclusive: 31.6 µM [inhibitor, single point] | – |
| COC1=C/C(=C/c2c(N)n3nc(-c4ccc(C)cc4)sc3nc2=O)C=CC1=O | inconclusive: 39.8 µM [inhibitor, single point] | – |
| Cc1ccc(C)c(N2CCN(C(=O)c3ccc4nc(-c5ccco5)c(-c5ccco5)nc4c3)CC2)c1 | inconclusive: 15.8 µM [inhibitor, partial curve] | – |
| O=S(=O)(Nc1cc(Sc2ncn[nH]2)c(O)c2ccccc12)c1ccccc1 | active: 28.2 µM | – |
| O=S(=O)(NCCc1ccccc1)c1ccccc1Br | – | inactive: 1.56% |

| SMILES | Potency | activity change, negative = inhibition |
| --- | --- | --- |
| CC(C(=O)O)N1C(=O)/C(=C/C=C/c2ccco2)SC1=S (stereo not given) | inconclusive: 39.8 µM [inhibitor, single point] | – |
| S=c1nc(-c2ccccc2)n(Cc2cccnc2)c2c1CCCC2 | inconclusive: 15.8 µM [inhibitor, partial curve] | – |
| Cc1ccsc1/C=C/C1=Cc2c(sc(NC(=O)CSc3n[nH]c(N)n3)c2C#N)C(C)(C)C1 | inconclusive: 25.1 µM [inhibitor, single point] | – |
| COc1cc(/C=C2\CC/C(=C\c3cc(OC)c(O)c(OC)c3)C2=O)cc(OC)c1O | inconclusive: 22.4 µM [inhibitor, single point] | – |
| O=C1/C(=C\c2ccc(O)c(O)c2)C(c2ccccc2)=NN1c1ccccc1 | inconclusive: 20 µM [inhibitor, single point] | – |
| CCS(=O)(=O)c1nn2c(N)c(/C=C3/C=CC(=O)C(OC)=C3)c(=O)nc2s1 | – | inactive: 0.379% |
| CC(C)NC(=O)c1cc(-n2cnnc2)ccc1Cl | – | inactive: -3.41% |
| O=C(/C=C/c1ccc(Br)cc1)NC(=S)Nc1ccc(S(=O)(=O)Nc2nccs2)cc1 | inconclusive: 11.2 µM [inhibitor, partial curve] | – |
| C/C(=N\NC(=O)c1cc(-c2cccc([N+](=O)[O-])c2)n[nH]1)c1ccccc1O | inconclusive: 11.2 µM [inhibitor, partial curve] | – |
| Cc1sc(NC(=O)CSc2nc(O)cc(=O)[nH]2)nc1-c1ccccc1 | inconclusive: 14.1 µM [inhibitor, partial curve] | – |
| COc1ccc(NC(=O)COC(=O)C2CC(=O)N(c3ccc(C)cc3)C2)cc1 (stereo not given) | – | inactive: -0.309% |
| CC(C)(C)c1ccc(Oc2ccc(NC(=O)C3CC=CCC3C(=O)O)cc2)cc1 (stereo not given) | inconclusive: 31.6 µM [inhibitor, single point] | – |
| O=C1NC(=O)[C@@H]2C3c4ccccc4C=CN3[C@H](C(=O)c3cccs3)[C@H]12 (stereo not given in full) | inconclusive: 10 µM [inhibitor, partial curve] | – |
| COc1ccc(-c2csc(NC(=O)CSc3nc(C)nc4sc(C(=O)O)c(C)c34)n2)cc1 | active: 31.6 µM | – |
| COc1cccc(-c2nc(S(=O)(=O)c3ccc(Cl)cc3)c(NCc3ccccc3)o2)c1 | – | inactive: -10.7% |
| O=C(Nc1ccc(-n2nncc2-c2ccco2)cc1)c1cccc(F)c1 | – | inactive: -11.4% |
| CCN1/C(=C/C(C)=C/c2sc3ccccc3[n+]2CC)Sc2ccccc21 | inconclusive: 25.1 µM [inhibitor, single point] | – |

Source: PubChem BioAssay AID2528 (National Center for Advancing Translational Sciences (NCATS), 2010)
